Measured values from publication PMC7164518 (Science (New York, N.y.), 2020).

Details: mice, nebulized, 3 mg kg^−1

## CC(C)(C)OC(=O)Nc1cccn([C@@H](CC2CC2)C(=O)N[C@@H](C[C@@H]2CCNC2=O)C(=O)C(=O)NCc2ccccc2)c1=O [Compound 13b]
  tolerability of inhalation: tolerated well and mice did not show any adverse effects
